This is one part of the list. These are noisy estimates, calculated here from bound and input reads.

This assay concerns the target T1, Pho4 (S. cerevisiae) (UniProt P07270).
T1 sequence: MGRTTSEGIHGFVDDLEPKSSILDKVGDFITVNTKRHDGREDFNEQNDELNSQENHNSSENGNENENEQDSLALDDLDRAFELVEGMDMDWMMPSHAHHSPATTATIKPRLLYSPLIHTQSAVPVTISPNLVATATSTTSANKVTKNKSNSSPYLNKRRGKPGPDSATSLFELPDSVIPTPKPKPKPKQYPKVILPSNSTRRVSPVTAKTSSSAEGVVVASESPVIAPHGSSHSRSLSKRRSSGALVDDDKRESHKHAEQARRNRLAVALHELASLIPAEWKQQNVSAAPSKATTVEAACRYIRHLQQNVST
As to the kind of experiment: relative binding free energy (BET-seq); higher = weaker binding. As to conditions: reference: library average.
AGTTACACGTGAAAGT: the “relative binding free energy” value came out at 0.3 kcal/mol.
Under GAAGGCACGTGTTCAG stands 0.05 kcal/mol; under AATGGCACGTGTATTA, 0.05 kcal/mol; under TCATTCACGTGTTTAG, 0.24 kcal/mol.
For the sequence AAAGTCACGTGGTTTG, the “relative binding free energy” value was found to be 0.03 kcal/mol.
As for TTTGGCACGTGCGCTC, the “relative binding free energy” value was -0.05 kcal/mol.
TTGGACACGTGTTTTC: the “relative binding free energy” value stood at 0.04 kcal/mol.
In the case of GAGTACACGTGAAGTG, the “relative binding free energy” value stood at 0.46 kcal/mol.
Regarding TATTGCACGTGGGCAT, the “relative binding free energy” value is -0.23 kcal/mol.
Take GGCAGCACGTGAGTAT: the “relative binding free energy” value is 0.33 kcal/mol.
Take TGGTTCACGTGTCTTA: the “relative binding free energy” value came out at 0.21 kcal/mol.
Under ATTGACACGTGTCAGT stands 0.14 kcal/mol.
AGTGCCACGTGGGTCT: the “relative binding free energy” value is -0.18 kcal/mol.
Under GTTGGCACGTGCAGCG stands -0.15 kcal/mol; under AGGTTCACGTGGACTT, 0.34 kcal/mol.
On to GTTGGCACGTGGGGGT, for which the “relative binding free energy” value is -0.09 kcal/mol.
On to TTATACACGTGGTGTC, for which the “relative binding free energy” value is -0.06 kcal/mol.
Take AGATCCACGTGGGGAT: the “relative binding free energy” value worked out at 0.05 kcal/mol.
Take CTCGTCACGTGAAGGT: the “relative binding free energy” value was 0.29 kcal/mol.
Under TGGACCACGTGGTGTG stands -0.07 kcal/mol.
With GATCTCACGTGTGGGG, the “relative binding free energy” value is 0.4 kcal/mol.
For TATTACACGTGTTTAG, the “relative binding free energy” value turned out to be 0.08 kcal/mol.
As for TTTTGCACGTGTGGGG, the “relative binding free energy” value was found to be 0.15 kcal/mol.
For the sequence GGGTTCACGTGTGTAG, the “relative binding free energy” value is 0.26 kcal/mol.
For ATAAGCACGTGTGCGT, the “relative binding free energy” value is -0.21 kcal/mol.
Turning to TTGAACACGTGGAGTA, the “relative binding free energy” value worked out at 0.14 kcal/mol.
Consider AGCGGCACGTGGTGAA, for which the “relative binding free energy” value was -0.05 kcal/mol.
Under TTGTGCACGTGCTATT stands 0.07 kcal/mol; under AAGTTCACGTGATGAA, 0.36 kcal/mol; under CGGTTCACGTGTTTGT, 0.3 kcal/mol.
As to TCGGGCACGTGGCGTT, the “relative binding free energy” value was -0.22 kcal/mol.
For GGTAACACGTGGTAGG, the “relative binding free energy” value is -0.16 kcal/mol.
Under TACTTCACGTGAGGAT stands 0.43 kcal/mol; under TTTATCACGTGGCGTT, 0.15 kcal/mol.
With ATTGACACGTGGGCGT, the “relative binding free energy” value is -0.11 kcal/mol.
Under AGCGGCACGTGGGGGT stands -0.17 kcal/mol; under CGTTTCACGTGGGAGC, 0.23 kcal/mol.
On to TTATCCACGTGTTATT, for which the “relative binding free energy” value is -0.08 kcal/mol.
Under TTAATCACGTGTGGCG stands 0.2 kcal/mol; under AAATACACGTGTGGGC, 0.24 kcal/mol; under TCCGTCACGTGTGGGT, 0.06 kcal/mol.
On to TGATGCACGTGGTGGA, for which the “relative binding free energy” value came to 0.06 kcal/mol.
As to ATTCACACGTGAAGTG, the “relative binding free energy” value was found to be 0.29 kcal/mol.
As for CCTGGCACGTGTGAGT, the “relative binding free energy” value was 0.03 kcal/mol.
In the case of GTCGACACGTGGGGAT, the “relative binding free energy” value was -0.08 kcal/mol.
Regarding TATTGCACGTGTTGAT, the “relative binding free energy” value is 0.02 kcal/mol.
Regarding TTTTCCACGTGGCTGT, the “relative binding free energy” value was 0.06 kcal/mol.
Under GGTTACACGTGTTTGG stands 0.2 kcal/mol; under CAGGTCACGTGGTTTG, 0.15 kcal/mol; under TAGGGCACGTGATCGT, -0.21 kcal/mol.
On to TGGTCCACGTGGCGGG, for which the “relative binding free energy” value worked out at 0.01 kcal/mol.
Under GGTGACACGTGCTCGG stands 0.03 kcal/mol.
As to TGTCTCACGTGGAAGT, the “relative binding free energy” value is 0.35 kcal/mol.
Under GTGATCACGTGTTACG stands 0.17 kcal/mol; under GCGGTCACGTGGCGTT, 0.07 kcal/mol; under AGCTTCACGTGGGAGA, 0.23 kcal/mol.
Under TCGGGCACGTGTGTTC stands -0.16 kcal/mol.
Under AAGGGCACGTGGTTTG stands -0.12 kcal/mol; under TACGTCACGTGGCTTT, 0.08 kcal/mol; under ATGGGCACGTGATCGA, -0.05 kcal/mol.
As to GTGTTCACGTGAGCGA, the “relative binding free energy” value worked out at 0.19 kcal/mol.
TCGGTCACGTGCGTGG: the “relative binding free energy” value was 0.08 kcal/mol.
Under GGATTCACGTGTGCGG stands 0.27 kcal/mol; under AGGTGCACGTGGTGCC, -0.25 kcal/mol; under AGTTTCACGTGGGGCG, 0.16 kcal/mol.
Under GGGGTCACGTGTCCAG stands 0.06 kcal/mol; under TGAGTCACGTGATCGG, 0.1 kcal/mol.
On to AGAGGCACGTGGTCTT, for which the “relative binding free energy” value was -0.13 kcal/mol.
In the case of AGGTGCACGTGTTGCA, the “relative binding free energy” value turned out to be 0.04 kcal/mol.
Under GTGTACACGTGTTGAT stands 0.14 kcal/mol.
Under GGATGCACGTGAAATT stands 0.14 kcal/mol.
Take CGGGGCACGTGTGTGT: the “relative binding free energy” value was -0.14 kcal/mol.
Consider GAGTACACGTGCAGGT, for which the “relative binding free energy” value was 0.23 kcal/mol.
For the sequence GGGTTCACGTGATGGT, the “relative binding free energy” value came to 0.37 kcal/mol.
On to GCATGCACGTGTGATG, for which the “relative binding free energy” value is 0.05 kcal/mol.
In the case of TGGGTCACGTGTTGAA, the “relative binding free energy” value is 0.11 kcal/mol.
Take GCTGTCACGTGTTGGG: the “relative binding free energy” value turned out to be 0.1 kcal/mol.
In the case of AGTGACACGTGAGTCG, the “relative binding free energy” value amounted to 0.23 kcal/mol.
Under TAATTCACGTGGTCGG stands 0.09 kcal/mol.
On to GGTGACACGTGTTTGT, for which the “relative binding free energy” value came to 0.04 kcal/mol.
With TAGTTCACGTGTATGG, the “relative binding free energy” value was determined as 0.28 kcal/mol.
Turning to ACGGACACGTGGTAGG, the “relative binding free energy” value was -0.01 kcal/mol.
Under TTTTGCACGTGATGTG stands 0.11 kcal/mol; under CTGTACACGTGGTGGC, 0.06 kcal/mol.
In the case of TGTGTCACGTGAGGCC, the “relative binding free energy” value was 0.25 kcal/mol.
Under GATTCCACGTGGTGAT stands 0.16 kcal/mol; under TGTCACACGTGAGGAT, 0.26 kcal/mol; under TGATGCACGTGTCCGG, -0.11 kcal/mol.
In the case of AATGTCACGTGCTTTG, the “relative binding free energy” value is -0.04 kcal/mol.
Turning to CGGTACACGTGAATGG, the “relative binding free energy” value was 0.29 kcal/mol.
Under CTGGTCACGTGGGTGA stands 0.05 kcal/mol.
As for GGTGTCACGTGAATTG, the “relative binding free energy” value came to 0.24 kcal/mol.
Turning to AATACCACGTGTGGTT, the “relative binding free energy” value was -0.06 kcal/mol.
As for TTTGGCACGTGAACAG, the “relative binding free energy” value stood at 0.19 kcal/mol.
On to AGGTTCACGTGTCCTT, for which the “relative binding free energy” value was found to be 0.36 kcal/mol.
Take TGATACACGTGATATT: the “relative binding free energy” value is 0.2 kcal/mol.
GGGGACACGTGTGGTA: the “relative binding free energy” value is 0.16 kcal/mol.
Regarding AGGGGCACGTGTAAGT, the “relative binding free energy” value turned out to be 0.09 kcal/mol.
Consider GTGAGCACGTGGTTGT, for which the “relative binding free energy” value was -0.09 kcal/mol.
For the sequence TGGGGCACGTGTTATC, the “relative binding free energy” value was -0.04 kcal/mol.
For the sequence CAAGTCACGTGTTTGG, the “relative binding free energy” value was 0.15 kcal/mol.
In the case of CGGCCCACGTGGGGTG, the “relative binding free energy” value was -0.24 kcal/mol.
CGGCGCACGTGGAGGT: the “relative binding free energy” value is -0.16 kcal/mol.
Under CGGTGCACGTGGGACG stands -0.24 kcal/mol; under TGGGCCACGTGCCGGA, -0.05 kcal/mol; under ATTTGCACGTGTTATG, 0 kcal/mol.
Take AGGATCACGTGTATGT: the “relative binding free energy” value stood at 0.18 kcal/mol.
With GTCTTCACGTGGTTCG, the “relative binding free energy” value was 0.34 kcal/mol.
Under TGCTTCACGTGTGTCT stands 0.19 kcal/mol; under CGATGCACGTGTTTGG, -0.1 kcal/mol.
Under GGAGTCACGTGCAGGA stands 0.18 kcal/mol.
Regarding GTGAGCACGTGCCTGG, the “relative binding free energy” value was -0.06 kcal/mol.
As for GTATACACGTGGTCTG, the “relative binding free energy” value is -0.07 kcal/mol.
Consider GTGTCCACGTGGTTAA, for which the “relative binding free energy” value was -0.03 kcal/mol.
With TGCGACACGTGCTAGG, the “relative binding free energy” value was 0.13 kcal/mol.
